According to the antibiotic and cytotoxicity screens of Wong et al. (2023):
Some of the results follow.

tested on: S. aureus RN4220; test: growth inhibition call (relative growth <= 0.2); conditions: 50 µM

Growth inhibition call, inactive:
COCCOC(=O)N1C(=O)[C@@]2(c3cc(C#CC4=CCCCC4)ccc31)[C@H](C(=O)N1CCc3cc(OC)c(OC)cc3C1)[C@H]1C(=O)O[C@H](c3ccccc3)[C@H](c3ccccc3)N1[C@@H]2c1ccccc1OCCO, CC1=CC=CC2=NC(=O)C[C@](C)(C(=O)O)N12, COc1ccc(S(=O)(=O)N(C)C[C@@H]2OCCCC[C@H](C)Oc3ccc(NS(=O)(=O)c4cn(C)cn4)cc3C(=O)N([C@H](C)CO)C[C@@H]2C)cc1, C[C@H](CO)N1C[C@H](C)[C@H](CN(C)S(=O)(=O)c2ccccc2)Oc2c(NC(=O)C3CC3)cccc2C1=O, COc1ccc(NC(=O)Nc2ccc3c(c2)C(=O)N([C@H](C)CO)C[C@@H](C)[C@H](CN(C)S(=O)(=O)c2ccc(OC)cc2)OCCCC[C@H](C)O3)cc1, C=CCC[C@@H](Cc1ccc(F)cc1)C(=O)OC[C@H](Cc1c[nH]c2ccccc12)NC(=O)[C@@H](CC=C)CC(=O)N[C@H](CO)Cc1ccccc1, C[C@H](CO)N1C[C@H](C)[C@@H](CN(C)C(=O)Nc2cccc3ccccc23)Oc2ccc(NS(=O)(=O)c3ccc(Cl)cc3)cc2C1=O, C[C@@H]1CCCCO[C@@H](CN(C)C(=O)Nc2ccc(C(F)(F)F)cc2)[C@@H](C)CN([C@H](C)CO)C(=O)c2cc(NC(=O)NC3CCCCC3)ccc2O1, CO[C@@H]1CN(C)C(=O)c2ccc(NC(=O)C3CC3)cc2OC[C@@H](C)N(C(=O)Nc2ccc(C(F)(F)F)cc2)C[C@H]1C, CC(C)NC(=O)Nc1ccc2c(c1)C(=O)N([C@H](C)CO)C[C@H](C)[C@@H](CN(C)C(=O)C1CCCCC1)OCCCC[C@H](C)O2, C[C@@H]1CN([C@H](C)CO)C(=O)c2cc(NC(=O)C3CC3)ccc2O[C@H]1CN(C)Cc1ccc(Oc2ccccc2)cc1, Cc1cc(-n2c(=O)[nH]c(=O)n(C)c2=O)ccc1Oc1ccc(SC(F)(F)F)cc1, C[C@@H]1CCCCO[C@H](CN(C)C(=O)Nc2cccc3ccccc23)[C@@H](C)CN([C@H](C)CO)C(=O)c2cc(NS(=O)(=O)c3cccs3)ccc2O1, Cc1noc(C)c1NC(=O)N(C)C[C@H]1Oc2ccc(NC(=O)CCCN(C)C)cc2C(=O)N([C@@H](C)CO)C[C@@H]1C, C[C@H](CO)N1C[C@H](C)[C@@H](CN(C)S(=O)(=O)c2ccc(F)cc2)Oc2c(NS(C)(=O)=O)cccc2C1=O, COCC(=O)Nc1ccc2c(c1)OC[C@H](C)N(C(=O)Cc1ccccn1)C[C@H](C)[C@H](OC)CN(C)C2=O, CCS(=O)(=O)NCC[C@H]1CC[C@H](NC(=O)C2CCOCC2)[C@@H](CO)O1, C=CCC1C=C(C)CC(C)CC(OC)C2OC(O)(C(=O)C(=O)N3CCCCC3C(=O)OC(C(C)=CC3CCC(O)C(OC)C3)C(C)C(O)CC1=O)C(C)CC2OC (stereo not drawn)
